# Measured values published in paper PMC4336329 (PLoS ONE, 2015).
# Among all 310,000 compounds or so, about 14,000 (4.5%) showed an effect of 50% or more. Effects have a minus sign here. This is one part of the list.
# Target: human ether-à-go-go-related gene (hERG) potassium channel (human, UniProt Q12809)
# Test: primary screen, population patch clamp on CHO cells stably expressing hERG
# 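Further: peak tail current of the secondary pulse compared with the same well before compound.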
# Sequence of human ether-à-go-go-related gene (hERG) potassium channel (Q12809 whole entry, looked up): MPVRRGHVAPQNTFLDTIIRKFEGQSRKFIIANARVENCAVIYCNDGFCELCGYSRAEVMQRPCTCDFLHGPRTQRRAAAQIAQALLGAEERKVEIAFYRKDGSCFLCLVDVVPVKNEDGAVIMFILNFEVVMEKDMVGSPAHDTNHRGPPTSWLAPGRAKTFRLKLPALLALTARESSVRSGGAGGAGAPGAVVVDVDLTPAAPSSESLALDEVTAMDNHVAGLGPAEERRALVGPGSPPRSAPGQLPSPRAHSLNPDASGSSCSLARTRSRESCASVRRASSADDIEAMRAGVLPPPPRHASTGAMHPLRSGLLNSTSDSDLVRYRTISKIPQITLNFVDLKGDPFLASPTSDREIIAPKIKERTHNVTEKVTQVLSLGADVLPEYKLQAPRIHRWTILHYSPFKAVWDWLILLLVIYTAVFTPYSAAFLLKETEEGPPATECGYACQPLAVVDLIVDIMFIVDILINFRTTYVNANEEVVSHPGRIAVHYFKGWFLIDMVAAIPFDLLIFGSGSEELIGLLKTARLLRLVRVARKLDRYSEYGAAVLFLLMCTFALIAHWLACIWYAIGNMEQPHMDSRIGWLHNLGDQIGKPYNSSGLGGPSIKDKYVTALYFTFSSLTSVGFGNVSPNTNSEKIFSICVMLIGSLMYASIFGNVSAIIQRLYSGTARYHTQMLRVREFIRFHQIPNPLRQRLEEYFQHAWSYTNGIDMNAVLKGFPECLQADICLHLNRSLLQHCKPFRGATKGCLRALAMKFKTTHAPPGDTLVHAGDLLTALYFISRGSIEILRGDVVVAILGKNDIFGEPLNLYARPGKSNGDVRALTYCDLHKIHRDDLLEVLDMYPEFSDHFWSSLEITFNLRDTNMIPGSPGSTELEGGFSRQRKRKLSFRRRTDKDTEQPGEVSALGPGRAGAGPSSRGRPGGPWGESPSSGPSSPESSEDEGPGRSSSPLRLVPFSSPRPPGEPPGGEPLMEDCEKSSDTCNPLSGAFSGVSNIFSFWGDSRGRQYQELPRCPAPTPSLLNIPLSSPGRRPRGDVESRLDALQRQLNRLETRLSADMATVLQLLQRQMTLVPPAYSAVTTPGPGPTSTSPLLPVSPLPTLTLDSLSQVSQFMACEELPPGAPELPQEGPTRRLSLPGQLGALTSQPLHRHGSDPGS
row,SMILES,"hERG current change (%, negative = inhibition) at 10uM [%]"
1,Cc1nnc(OCc2nc3ccccc3n2C)c2ccccc12,-27.4
2,CCn1ncc(CNC(=O)CCCSc2nc(-c3ccco3)cc(C(F)(F)F)n2)c1C,-41.6
3,CCN(CC)C(=S)SSC(=S)N(CC)CC,17.8
4,Cc1ccc(C)c(NC(=S)NCC(c2cccnc2)N2CCOCC2)c1 (stereo not drawn),-8.03
5,CC(=O)Nc1ccc(C2Nc3ccccc3C(=O)N2C2CCCCC2)cc1 (stereo not drawn),12.4
6,COC(=O)c1sc2ccccc2c1NC(=O)c1ccc(S(=O)(=O)N2CC(C)CC(C)C2)cc1 (stereo not drawn),-6.83
7,CSc1ccc(C(=O)C2CCCN(C(=O)CCCn3cncn3)C2)cc1 (stereo not drawn),-40.5
8,CN(c1ccc(C(=O)N2CCOCC2)cc1)S(C)(=O)=O,-4.31
9,CCOC(=O)CSc1nc2ccccc2c(=O)n1CC,-14.6
10,CCOC(=O)c1ccc(N2C(=O)CC(N(C)Cc3ccccc3)C2=O)cc1 (stereo not drawn),20.9
11,CC(=O)N(c1ccccc1)c1nc(C)cc(C)c1C#N,12.1
12,CCN(CCNC(=O)C1CCN(S(=O)(=O)c2cccc3cccnc23)CC1)c1ccccc1,-41.7
13,COc1cc2[nH]cc(C(=O)NCc3ccccc3)c(=O)c2cc1OC,12.8
14,CC(C)(C)C(=O)OCc1nc(-c2ccc(O)c(O)c2)cs1,9.39
15,CN1C(=O)C(C)(C)c2cc(S(=O)(=O)N3CCN(c4ccc(F)cc4)CC3)ccc21,-23.3
16,COc1ccc(NC(=O)c2ccc(-n3cncn3)c([N+](=O)[O-])c2)cc1,-5.61
17,Cc1cccc(NC(=O)C2CCN(S(=O)(=O)c3cccs3)CC2)c1,-10.5
18,COc1cccc(-c2nn(C)c3sc(C(=O)NCCCN(C)Cc4ccccc4)cc23)c1,-52.2
19,O=C(NC(Cc1ccccc1)C(=O)NCCc1ccccn1)c1cccs1 (stereo not drawn),6.14
20,CS(=O)(=O)N(CC(=O)Nc1ccc(S(=O)(=O)N2CCOCC2)cc1)c1ccccc1Cl,-11.7
21,Cn1nc(C(C)(C)C)cc1C(=O)O,18.5
22,Cn1cccc1Cc1nnc(SCC(=O)N2CCCC2)n1CCc1ccccc1,0.218
23,CC1(C)CC(=O)c2ccc(O)cc2O1,4.03

row,SMILES,"hERG current change (%, negative = inhibition) at 10uM [%]"
1,COc1ccc(C(=O)NC(Cc2ccc(OC(=O)c3ccc(OC)cc3)cc2)C(=O)O)cc1 (stereo not drawn),20.1
2,CCOC(=O)/C=C/C(=O)OCC(=O)Nc1cccc(Cl)c1Cl,6.12
3,COc1ccc(-c2nn(-c3ccccc3)cc2C(=O)NCC2CCCO2)cc1 (stereo not drawn),-0.557
4,O=C(Nc1cccc2ccccc12)c1cn(-c2ccccc2)nc1-c1cccs1,15.4
5,C=CCn1c(C)cc(C(=O)CSc2nc(N)cc(N)n2)c1C,7
6,O=Cc1c(NCc2ccc(F)cc2)c2ccccc2[nH]c1=O,2.59
7,C[C@@H]1C=C(C(=O)NC2CC2)O[C@H](OCc2ccc(CO)cc2)C1,-10.7
8,O=C(COc1ccc(S(=O)(=O)NC2CCCCC2)cc1)NCCC1=CCCCC1,2.33
9,O=c1[nH]c(C(Cl)Cl)nc2sc3c(c12)CCN(Cc1ccccc1)C3,-6.24
10,CN(CC(=O)Nc1ccc(N2CCOCC2)cc1)C(=O)CCc1ccccc1Cl,-17.8
11,COc1ccc(OC)c(NC(=O)CSc2ccc(-c3cccnc3)nn2)c1,-17.6
12,O=[N+]([O-])c1cccc(N/N=C/c2cc([N+](=O)[O-])ccc2O)c1,-1.34
13,O=C(CSc1ccccc1)Nc1nccs1,-3.78
14,CCn1c(CCCNC(=O)c2cccs2)nc2ccccc21,-15
15,Cc1cc(=O)oc2cc(OCC(=O)OCC(=O)NC3CC3)ccc12,16.4
16,CCS(=O)(=O)N1CCCC(C(=O)NCCCOC(C)C)C1 (stereo not drawn),4.87
17,COc1ccc(NC(=S)NN2CCOCC2)cc1OC,-15.4
18,CCCN(C(=O)CSc1nc(C2CC2)n(-c2ccccc2)n1)C1CCS(=O)(=O)C1 (stereo not drawn),-7.22
19,O=C(Nc1ccc(OCC(=O)N2CCC(Cc3ccccc3)CC2)cc1)c1ccco1,-20.6
20,COCCN(CC(=O)NC1CCCCC1)C(=O)CCCC(=O)Nc1ccccn1,10
21,COc1ccc2c(c1)Cc1sc(NC(C)=O)nc1-2,15.4
22,O=C(/C=C/c1ccccc1)CC(=O)c1ccccc1O,23.4
23,COc1cccc(-c2nnc3n2N=C(c2cc(OC)ccc2OC)CS3)c1,2.48

row,SMILES,"hERG current change (%, negative = inhibition) at 10uM [%]"
1,CCOc1ccc(NC(=O)c2sc3nc(N4CCOCC4)c4c(c3c2N)CC(C)(C)OC4)cc1,20.6
2,COc1ccccc1CNc1nc2nc3c(c(=O)n2[nH]1)CCC3,0.0608
3,CCCCCCN1CC(C(=O)OCC)C(=O)C1=O (stereo not drawn),-22.5
4,CCOC(=O)CN1CC23C=CC(O2)C(C(=O)O)C3C1=O (stereo not drawn),-6.7
5,COC(=O)/C=C(\C)NC(=O)c1ccccc1Cl,11.4
6,O=C(COC(=O)C1=Cc2ccccc2OC1)NC1CCCC1,17.3
7,O=S1(=O)CC(O)C(N2CCC(c3ccccc3)CC2)C1 (stereo not drawn),7.68
8,N#Cc1cc(Sc2ccccn2)c(Sc2ccccn2)cc1C#N,5.64
9,CCN1CCN(c2nc(-c3cccs3)nc3ccccc23)CC1,-70.8
10,CCOc1ccc2cc(C#N)c(SCC(=O)NC(C)CC)nc2c1 (stereo not drawn),5.6
11,CCOC(=O)N1CCC(NC(=O)c2cc(C(=O)Nc3ccc(OCC)cc3)ccc2CO)CC1,9.27
12,O=C(COC(=O)c1ccccc1[N+](=O)[O-])c1ccc(C2CCCCC2)cc1,3.94
13,CCOc1ncccc1C(=O)OCC(=O)c1ccc(Cl)s1,-0.952
14,CC(=O)c1c(C)[n+]([O-])c2ccc3c(non3O)c12,13.6
15,CC(C)(C)NC(=O)Cn1nc(C(F)(F)F)c2c1CCCC2,7.68
16,Cc1ccc(CCNC(=O)CCSCc2ccc(Cl)cc2)cc1,8.95
17,C/C(=N\Nc1ccc(Cl)c(C(=O)O)c1)c1cc2ccccc2o1,8.35
18,CCOC(=O)C1CCCN(CCC(=O)Nc2cc(C)cc(C)c2)C1 (stereo not drawn),-58.4
19,Cc1ccc(NS(=O)(=O)c2cccc(C(=O)NCC(c3cccs3)N3CCOCC3)c2)cc1 (stereo not drawn),-14.3
20,O=C(COc1ccccc1)N1CCN(S(=O)(=O)c2cccc([N+](=O)[O-])c2)CC1,-47.3
21,CCC1=NC(c2ccc(OC)cc2)N(O)C1(C)C (stereo not drawn),13.9
22,O=C(COc1ccc(-n2cnnn2)cc1)NCCc1ccc(F)cc1,-51.5
23,C/C=C1/C[C@@H](C)[C@](O)(CO)C(=O)OCC2=CCN3CC[C@@H](OC1=O)[C@@H]23,16.1

row,SMILES,"hERG current change (%, negative = inhibition) at 10uM [%]"
1,S=c1[nH]nc(-c2n[nH]c3c2CCC3)n1/N=C/C=C/c1ccccc1,13.8
2,Cc1ccc(S(=O)(=O)N2CCC(Oc3ccc(-n4cnnn4)cc3)CC2)cc1,0.934
3,COc1ccc(Cc2nnc(NC(=O)C(C)C)s2)cc1,11.2
4,CCc1ccc(NC(=O)c2cnn(-c3ccccc3)c2C2CCNCC2)cc1.Cl,-60
5,O=C(CCCNC(=O)/C(=C\c1ccc(F)cc1)NC(=O)c1ccccc1)OCc1ccccc1,-77.1
6,Cc1ccc(Cl)cc1N1CCN(c2cccc[n+]2C)CC1.[I-],-38.4
7,Cc1c(NC2=NC(C)(C)Cc3ccccc32)c(=O)n(-c2ccccc2)n1C,-5.5
8,O=C(Nc1nnc(-c2ccccc2)o1)Nc1ccccc1Cl,8.51
9,COc1cc(/C=C/CN2CCN(Cc3ccc(C)o3)C(CCO)C2)ccc1O (stereo not drawn),-6.62
10,C=CCN1C(=O)C2(c3ccccc31)C1CCCC=C1C(C#N)=C(N)C2(C#N)C#N (stereo not drawn),1.1
11,CCc1ccccc1NC(=O)CNC(=O)CSC(=S)N1CCCC1,-3.17
12,OCCC1CN(Cc2cccn2-c2nccs2)CCN1C1CCCCC1 (stereo not drawn),-37.8
13,Cc1ccccc1CSCC(=O)NNC(=S)NCC1CCCO1 (stereo not drawn),7.94
14,COC(=O)c1ccc(NC(=S)NCCc2ccccc2)cc1,12.9
15,CN(C)S(=O)(=O)Nc1ccc2c(c1)Cc1ccccc1-2,6.73
16,CCn1c(SCC(=O)NCC2CCCO2)nc2c(c1=O)SC(C)C2 (stereo not drawn),10.5
17,CN(C)C(CNC(=O)c1cccc(S(=O)(=O)NCc2ccccc2)c1)c1ccco1 (stereo not drawn),-28.2
18,Cc1ccc(S(=O)(=O)n2cnc3cc([N+](=O)[O-])ccc32)cc1C,-19.9
19,CCOc1ccc(NC(=O)CC2C(=O)N(CC)C(=S)N2CCN2CCOCC2)cc1 (stereo not drawn),-5.97
20,Cn1c(SCC(=O)N2CCOCC2)nnc1-c1cccc(NC(=O)c2ccccc2F)c1,12.5
21,Nc1nc(SC2c3cccc4cccc(c34)C2NS(=O)(=O)c2ccccc2)n[nH]1 (stereo not drawn),5.88
